Laboratory results taken from a collection of fitness landscapes (doi:10.1038/s41467-024-54723-y).
Whole data set: some 18,000 sequences, median “TetR repression strength (sort-seq, GFP reporter)” near 0.23, cut for the highest 2% near 0.68. The list shows a part of the results.

Each sequence was assayed against TetR (class B, Tn10) (UniProt P04483) (assay: TetR repression strength (sort-seq, GFP reporter) (relative to tetO2 = 1); higher = stronger repression). Settings: E. coli.
UniProt P04483, sequence (P04483 whole entry): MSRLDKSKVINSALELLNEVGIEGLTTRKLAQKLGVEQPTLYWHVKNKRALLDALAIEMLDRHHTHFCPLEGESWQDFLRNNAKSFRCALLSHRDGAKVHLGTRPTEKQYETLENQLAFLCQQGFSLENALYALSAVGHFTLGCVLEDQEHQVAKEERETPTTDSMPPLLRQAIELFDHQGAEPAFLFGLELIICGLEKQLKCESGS
Method in brief: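 Repression strength is the top bin index plus one minus the read-weighted mean bin, relative to the unaltered operator's value. A low-copy library in E. coli SIG10-MAX randomized eight operator positions between a constitutive promoter and sfGFP, with TetR expressed constitutively; cells grew 5 h at 37 °C in LB with 50 µg/mL chloramphenicol and 10^6 were FACS-sorted into 13 bins that were each Illumina-sequenced. Three independent transformations were averaged, keeping only members with ≥30 reads in all replicates and CV ≤0.5.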
TCCCTGTAAGTCGGCGAGA gave a TetR repression strength of 0.213.
In the case of TCCCTCGCAGTCGGTGAGA, the TetR repression strength was 0.176.
In the case of TCCCTACAAGTAGGGGAGA, the TetR repression strength was 0.225.
Work on TCCCGTTGAGTTAGAGAGA yielded a TetR repression strength of 0.171.
TCCCATGGAGTGTAAGAGA showed a TetR repression strength of 0.236.
Work on TCCCTTAAAGTGGCTGAGA yielded a TetR repression strength of 0.27.
With TCCCCACAAGTGCACGAGA the TetR repression strength was 0.211.
With TCCCAGCAAGTCTAGGAGA the TetR repression strength was 0.284.
In the case of TCCCTGCTAGTGATGGAGA, the TetR repression strength was 0.562.
With TCCCGGATAGTTAGGGAGA the TetR repression strength was 0.336.
With TCCCTTGGAGTAATAGAGA the TetR repression strength was 0.273.
For TCCCCGACAGTGACCGAGA, the TetR repression strength was 1.08.
In the case of TCCCTGCCAGTGCTTGAGA, the TetR repression strength was 0.139.
Sequence TCCCGTTCAGTTGCAGAGA has a TetR repression strength of 0.0605.
Work on TCCCAATCAGTGAATGAGA yielded a TetR repression strength of 0.603.
Sequence TCCCCCAGAGTAGACGAGA has a TetR repression strength of 0.204.
With TCCCCTGGAGTAATAGAGA the TetR repression strength was 0.435.
TCCCAGAAAGTCAATGAGA showed a TetR repression strength of 0.289.
With TCCCAGACAGTACTGGAGA the TetR repression strength was 0.17.
Work on TCCCATACAGTGCTTGAGA yielded a TetR repression strength of 0.181.
TCCCGGTTAGTATACGAGA showed a TetR repression strength of 0.207.
Work on TCCCCCACAGTGCGAGAGA yielded a TetR repression strength of 0.213.
Work on TCCCGGATAGTGATCGAGA yielded a TetR repression strength of 0.33.
Sequence TCCCGAGGAGTCGGGGAGA has a TetR repression strength of 0.44.
TCCCCGGCAGTGGGCGAGA showed a TetR repression strength of 0.199.
TCCCGGCGAGTTTTCGAGA was tested, and the TetR repression strength was 0.139.
In the case of TCCCCTGCAGTATGAGAGA, the TetR repression strength was 0.855.
With TCCCGGCCAGTGCGAGAGA the TetR repression strength was 0.212.
With TCCCCACCAGTCTGCGAGA the TetR repression strength was 0.243.
TCCCTGAGAGTGCTGGAGA gave a TetR repression strength of 0.564.
With TCCCTGCCAGTAGAGGAGA the TetR repression strength was 0.277.
TCCCCCCTAGTCAGTGAGA showed a TetR repression strength of 0.198.
Work on TCCCGACCAGTTGGTGAGA yielded a TetR repression strength of 0.387.
TCCCGAGGAGTGGCCGAGA showed a TetR repression strength of 0.175.
TCCCTGTGAGTAGATGAGA showed a TetR repression strength of 0.255.
For TCCCTTGGAGTGCGAGAGA, the TetR repression strength was 0.195.
In the case of TCCCATTTAGTTGCAGAGA, the TetR repression strength was 0.177.
TCCCACATAGTGCGAGAGA gave a TetR repression strength of 0.198.
Sequence TCCCCTAGAGTGGTTGAGA has a TetR repression strength of 0.285.
TCCCAGGGAGTGGGTGAGA showed a TetR repression strength of 0.571.
TCCCAACGAGTATGGGAGA gave a TetR repression strength of 0.0429.
For TCCCAGTAAGTGCCCGAGA, the TetR repression strength was 0.0992.
TCCCTCCCAGTGGCCGAGA gave a TetR repression strength of 0.384.
For TCCCTGGTAGTCCGGGAGA, the TetR repression strength was 0.223.
In the case of TCCCACGGAGTGTGGGAGA, the TetR repression strength was 0.15.
For TCCCTTGGAGTGGAGGAGA, the TetR repression strength was 0.351.
With TCCCGCTCAGTTGGCGAGA the TetR repression strength was 0.195.
With TCCCGTGAAGTGCGCGAGA the TetR repression strength was 0.277.
TCCCGCTCAGTGTGCGAGA was tested, and the TetR repression strength was 0.112.
Sequence TCCCCATTAGTATAAGAGA has a TetR repression strength of 0.12.
Sequence TCCCATCGAGTCTTAGAGA has a TetR repression strength of 0.366.
TCCCTGCTAGTAAGGGAGA gave a TetR repression strength of 0.196.
Sequence TCCCCCGAAGTGATAGAGA has a TetR repression strength of 0.354.
In the case of TCCCGTCGAGTGCGGGAGA, the TetR repression strength was 0.156.
TCCCGGTTAGTCAGGGAGA gave a TetR repression strength of 0.333.
Sequence TCCCTTTAAGTATATGAGA has a TetR repression strength of 0.12.
